# Where “and” joins values, the source holds several entries; their conditions need not be identical. Identical values can stand only once. The full ranking holds about 2,900 compounds; the median of “IRF Lucia reporter activity, fold change vs agonist alone” is about 0.9, and the highest 2% start at about 2.8. The list shows a part of the results.
# Legend:
# RAW-Dual [1] = assay: IRF Lucia reporter activity, fold change vs agonist alone; higher = enhanced IRF activity; conditions: library stock concentration (final ~1000-fold dilution): 10 mM, agonist: MPLA (TLR4) […]
# In short: (§1)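 RAW-Dual macrophages were seeded in DMEM at 50,000 cells/well in 384-well plates, given 50 nL of library stock by pin tool, and given a PRR agonist 1 h later. Plates were held at 37 °C, 5% CO2 for 20 hours, after which supernatant was read for IRF by QuantiLuc luminescence and for NF-κB by QuantiBlue absorbance at 620 nm. Reporter activity is expressed as fold change over wells that received agonist alone. A well was called cytotoxic when IncuCyte confluency fell below 70% of agonist controls in both mask sets.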
# RAW-Dual [2] = assay: IRF Lucia reporter activity, fold change vs agonist alone; cytotoxicity flag (confluency mask): not cytotoxic; higher = enhanced IRF activity
# In short: as §1
# RAW-Dual [3] = assay: IRF Lucia reporter activity, fold change vs agonist alone; cytotoxicity flag (confluency mask): cytotoxic (confluency <70% of control); higher = enhanced IRF activity
# In short: as §1
# [4] = cytotoxicity flag (confluency mask): not cytotoxic
# [5] = agonist: 3'3'-cGAMP (STING) 10 ug/mL
compound,measurement,setting,value
Cn1c(=O)c2c(ncn2CC2OCCO2)n(C)c1=O,IRF Lucia reporter activity,RAW-Dual [1]; [4],1.19
Cn1c(=O)c2c(ncn2CC2OCCO2)n(C)c1=O (library stock concentration (final ~1000-fold dilution): 10 mM),IRF Lucia reporter activity,RAW-Dual [2]; [5],1.07
same,IRF Lucia reporter activity,RAW-Dual [2]; agonist: LPS (TLR4) 0.1 ug/mL,1.08
CC(C)(C)NCC(O)COc1ccccc1C1CCCC1.CC(C)(C)NCC(O)COc1ccccc1C1CCCC1.O=S(=O)(O)O (centres undefined) (library stock concentration (final ~1000-fold dilution): 10 mM),IRF Lucia reporter activity,RAW-Dual [2]; [5],0.74
same,IRF Lucia reporter activity,RAW-Dual [2]; agonist: LPS (TLR4) 0.1 ug/mL,1.6
CCCCCCCCCCCCCCOC1C(OC)OC(CN)C(O)C1OCCCCCCCCCCCCCC (centres undefined) (library stock concentration (final ~1000-fold dilution): 1 mM),IRF Lucia reporter activity,RAW-Dual [2]; [5],1.06
same,IRF Lucia reporter activity,RAW-Dual [2]; agonist: LPS (TLR4) 0.1 ug/mL,0.996
CN(C)C(=O)CCSC(SCCC(=O)O)c1cccc(C=Cc2ccc3ccc(Cl)cc3n2)c1 (centres undefined) (library stock concentration (final ~1000-fold dilution): 10 mM),IRF Lucia reporter activity,RAW-Dual [2]; [5],1.1
same,IRF Lucia reporter activity,RAW-Dual [2]; agonist: LPS (TLR4) 0.1 ug/mL,1.28
O=C(OCC1OC(OC(=O)c2cc(O)c(O)c(OC(=O)c3cc(O)c(O)c(O)c3)c2)C(OC(=O)c2cc(O)c(O)c(OC(=O)c3cc(O)c(O)c(O)c3)c2)C(OC(=O)c2cc(O)c(O)c(OC(=O)c3cc(O)c(O)c(O)c3)c2)C1OC(=O)c1cc(O)c(O)c(OC(=O)c2cc(O)c(O)c(O)c2)c1)c1cc(O)c(O)c(OC(=O)c2cc(O)c(O)c(O)c2)c1 (centres undefined),IRF Lucia reporter activity,RAW-Dual [1]; [4],1.78
O=C(OCC1OC(OC(=O)c2cc(O)c(O)c(OC(=O)c3cc(O)c(O)c(O)c3)c2)C(OC(=O)c2cc(O)c(O)c(OC(=O)c3cc(O)c(O)c(O)c3)c2)C(OC(=O)c2cc(O)c(O)c(OC(=O)c3cc(O)c(O)c(O)c3)c2)C1OC(=O)c1cc(O)c(O)c(OC(=O)c2cc(O)c(O)c(O)c2)c1)c1cc(O)c(O)c(OC(=O)c2cc(O)c(O)c(O)c2)c1 (centres undefined) (library stock concentration (final ~1000-fold dilution): 10 mM),IRF Lucia reporter activity,RAW-Dual [2]; [5],0.399
same,IRF Lucia reporter activity,RAW-Dual [2]; agonist: LPS (TLR4) 0.1 ug/mL,2.01
COc1ccc(Oc2cc(C)c(-c3csc(NC(=O)c4ccncc4)n3)c(C)c2)cc1 (library stock concentration (final ~1000-fold dilution): 10 mM),IRF Lucia reporter activity,RAW-Dual [2]; [5],0.879
same,IRF Lucia reporter activity,RAW-Dual [2]; agonist: LPS (TLR4) 0.1 ug/mL,1.23
COc1ccc(Oc2cc(C)c(-c3csc(NC(=O)c4ccncc4)n3)c(C)c2)cc1,IRF Lucia reporter activity,RAW-Dual [1]; [4],1.44
COCC(=O)NC/C=C/c1ccc2ncnc(Nc3ccc(Oc4ccc(C)nc4)c(C)c3)c2c1,IRF Lucia reporter activity,RAW-Dual [1]; [4],0.82
COCC(=O)NC/C=C/c1ccc2ncnc(Nc3ccc(Oc4ccc(C)nc4)c(C)c3)c2c1 (library stock concentration (final ~1000-fold dilution): 10 mM),IRF Lucia reporter activity,RAW-Dual [2]; [5],0.697
same,IRF Lucia reporter activity,RAW-Dual [2]; agonist: LPS (TLR4) 0.1 ug/mL,1.01
CC(C)NCC(O)COc1ccc(CC(N)=O)cc1 (centres undefined),IRF Lucia reporter activity,RAW-Dual [1]; [4],1
CC(C)NCC(O)COc1ccc(CC(N)=O)cc1 (centres undefined) (library stock concentration (final ~1000-fold dilution): 10 mM),IRF Lucia reporter activity,RAW-Dual [2]; [5],0.976
same,IRF Lucia reporter activity,RAW-Dual [2]; agonist: LPS (TLR4) 0.1 ug/mL,1.23
CCCCNc1ncc(C(=O)NCc2ccc(-n3ccnc3)cc2)c(NC2CCC(O)CC2)n1 (centres undefined) (library stock concentration (final ~1000-fold dilution): 10 mM),IRF Lucia reporter activity,RAW-Dual [2]; [5],0.0128
same,IRF Lucia reporter activity,RAW-Dual [2]; agonist: LPS (TLR4) 0.1 ug/mL,0.0441
CCCCNc1ncc(C(=O)NCc2ccc(-n3ccnc3)cc2)c(NC2CCC(O)CC2)n1 (centres undefined),IRF Lucia reporter activity,RAW-Dual [1]; [4],0.0212
NC(CC(=O)N1CCn2c(nnc2C(F)(F)F)C1)Cc1cc(F)c(F)cc1F (centres undefined) (library stock concentration (final ~1000-fold dilution): 10 mM),IRF Lucia reporter activity,RAW-Dual [2]; [5],0.983 and 1.04
same,IRF Lucia reporter activity,RAW-Dual [2]; agonist: LPS (TLR4) 0.1 ug/mL,1.07 and 1.26
O=C(/C=C/c1ccc(O)c(O)c1)O[C@@H]1C[C@@](O)(C(=O)O)C[C@@H](O)[C@@H]1O (library stock concentration (final ~1000-fold dilution): 10 mM),IRF Lucia reporter activity,RAW-Dual [2]; [5],1.02
same,IRF Lucia reporter activity,RAW-Dual [2]; agonist: LPS (TLR4) 0.1 ug/mL,1.23
C=CC(=O)Nc1cccc(Sc2nc(Nc3ccc(N4CCN(C)CC4)cc3)ncc2Cl)c1 (library stock concentration (final ~1000-fold dilution): 10 mM),IRF Lucia reporter activity,RAW-Dual [2]; [5],0.00681
same,IRF Lucia reporter activity,RAW-Dual [2]; agonist: LPS (TLR4) 0.1 ug/mL,0.0417
C=CC(=O)Nc1cccc(Sc2nc(Nc3ccc(N4CCN(C)CC4)cc3)ncc2Cl)c1,IRF Lucia reporter activity,RAW-Dual [1]; [4],0.0982
CN1C2CCC1CC(OC(c1ccccc1)c1ccccc1)C2.CS(=O)(=O)O (centres undefined),IRF Lucia reporter activity,RAW-Dual [1]; [4],1.34
CN1C2CCC1CC(OC(c1ccccc1)c1ccccc1)C2.CS(=O)(=O)O (centres undefined) (library stock concentration (final ~1000-fold dilution): 10 mM),IRF Lucia reporter activity,RAW-Dual [2]; [5],0.534
same,IRF Lucia reporter activity,RAW-Dual [2]; agonist: LPS (TLR4) 0.1 ug/mL,1.02
CC(C)(O)c1ccccc1CCC(SCC1(CC(=O)O)CC1)c1cccc(C=Cc2ccc3ccc(Cl)cc3n2)c1 (centres undefined),IRF Lucia reporter activity,RAW-Dual [1]; cytotoxicity flag (confluency mask): cytotoxic (confluency <70% of control),0.974
CC(C)(O)c1ccccc1CCC(SCC1(CC(=O)O)CC1)c1cccc(C=Cc2ccc3ccc(Cl)cc3n2)c1 (centres undefined) (library stock concentration (final ~1000-fold dilution): 10 mM),IRF Lucia reporter activity,RAW-Dual [3]; [5],0.581
same,IRF Lucia reporter activity,RAW-Dual [3]; agonist: LPS (TLR4) 0.1 ug/mL,1.62
CCOC(=O)C1=CCCCC1S(=O)(=O)Nc1ccc(F)cc1Cl (centres undefined) (library stock concentration (final ~1000-fold dilution): .1 mM),IRF Lucia reporter activity,RAW-Dual [2]; [5],0.854
same,IRF Lucia reporter activity,RAW-Dual [2]; agonist: LPS (TLR4) 0.1 ug/mL,0.0388

# — the supplement of paper PMC10037445
